# Experimental data: the supplement of paper PMC4723716
# ± gives the uncertainty stated by the source. The full ranking holds about 9,900 compounds; the median of “viability index relative to DMSO control” is about 1, and the lowest 2% start at about 0.85. The list shows a part of the results.
# Tested on: Plasmodium falciparum NF54 stage V gametocytes
# Assay: viability index relative to DMSO control (fraction); higher = less gametocyte killing
# Settings: 2.5 µM, library set: Broad Institute DOS, incubation time: 72 h
# Summary of the method: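 Stage V gametocytes of P. falciparum NF54 were held in serum-free screening medium at 0.75% gametocytemia and 1.25% hematocrit, 10 µl per well of a 1,536-well plate, and exposed to compound at 2.5 µM for 72 hr at 37°C under low oxygen. A 3 µl mix of 2.5 µM MitoTracker Red CMXRos with 0.13% saponin was then added for one to two hours, after which one field per well was imaged and red particles of 20–70 µm2 were counted. The viability index equals this count divided by the plate mean from wells given solvent alone.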
row,SMILES,viability index
1,CCCNC(=O)N[C@@H]1C=C[C@@H](CC(=O)N2CCN(C)CC2)O[C@@H]1CO,1.11 ± 0.056
2,O=C(N[C@@H]1CC[C@@H](CCNS(=O)(=O)c2ccc(F)cc2)O[C@@H]1CO)C1CCC1,1.01 ± 0.18
3,CO[C@H]1CN(C)C(=O)c2cc(NC(=O)NC3CCCCC3)ccc2OC[C@H](C)N(CC2CCOCC2)C[C@H]1C,1.03 ± 0.052
4,CO[C@@H](CN(C)C(=O)c1cc(Cl)cc(Cl)c1)[C@@H](C)CN(C(=O)Nc1ccc(F)cc1)[C@H](C)CO,1.1 ± 0.09
5,CO[C@@H](C(=O)N(C)C[C@H]1OCc2ccccc2-c2ccccc2C(=O)N([C@@H](C)CO)C[C@H]1C)c1ccccc1,1.02 ± 0.015
6,CO[C@@H](C(=O)N(C)C[C@H]1OCc2ccccc2-c2ccccc2C(=O)N([C@@H](C)CO)C[C@@H]1C)c1ccccc1,1.01 ± 0.016
7,COc1ccc(NC(=O)Nc2cccc3c2O[C@@H](CN(C)Cc2ccc(C(=O)O)cc2)[C@@H](C)CN([C@H](C)CO)C3=O)cc1,0.926 ± 0.066
8,C[C@@H]1CN([C@H](C)CO)C(=O)c2ccccc2-c2ccccc2CO[C@H]1CN(C)S(=O)(=O)c1ccc([N+](=O)[O-])cc1,0.938 ± 0.084
9,O=C(Nc1ccc(F)cc1)N1[C@@H]2CNC[C@H]1[C@H]2c1ccc(-c2cccnc2)cc1,0.996 ± 0.053
10,Cc1cccc(S(=O)(=O)N[C@H]2CC[C@H](CCNC(=O)Nc3cc(F)ccc3F)O[C@H]2CO)c1,1.04 ± 0.13
11,C[C@@H]1CCCCO[C@H](CN(C)Cc2ccc(C(F)(F)F)cc2)[C@@H](C)CN([C@@H](C)CO)C(=O)c2cc(NC(=O)Nc3cccc4ccccc34)ccc2O1,1.11 ± 0.027
12,O=C(Nc1ccccc1Cl)N1C[C@H]2[C@@H](c3ccccc31)[C@H](CO)N2C(=O)c1cccnc1,1.04 ± 0.017
13,COc1ccc2c3c([C@@H](CO)N(C[C@]33CN(C3)C(=O)Cc3ccccc3)C(=O)c3ccccn3)n(C)c2c1,0.892 ± 0.075
14,C/C=C/c1ccc([C@H]2[C@H](CO)N(C(C)=O)[C@H]2CNC(=O)c2ccccc2)cc1,1.1 ± 0.051
15,COC(=O)C[C@H]1CC[C@@H]2[C@@H](COc3ccc(NC(=O)Nc4cccc(C#N)c4)cc3C(=O)N2C)O1,1.16 ± 0.11
16,C[C@@H]1CCCCO[C@H](CN(C)Cc2ccncc2)[C@H](C)CN([C@@H](C)CO)C(=O)c2cc(NC(=O)Cc3ccccc3)ccc2O1,1.04 ± 0.024
17,O=C(NCc1ccccc1)[C@@H]1[C@@H](CO)[C@@H]2Cn3c(cccc3=O)[C@H]1N2C(=O)Cc1ccccn1,1.018 ± 0.0078
18,COCC(=O)N1C[C@]2(CN(C2)S(C)(=O)=O)c2c([C@@H]1CO)n(C)c1cc(OC)ccc21,0.993 ± 0.14
19,OC[C@@H]1[C@@H](c2ccccc2)C2(CN(CC3CCOCC3)C2)N1Cc1cncnc1,1.08 ± 0.056
20,CC(=O)N1CCCCN2[C@H](C1)[C@H](c1ccc(-c3ccccc3)cc1)[C@@H]2CO,0.993 ± 0.083
21,OC[C@@H]1[C@H](c2ccc(-c3cccnc3)cc2)[C@@H]2CN(Cc3ccccn3)CCCCN12,1.04 ± 0.06
22,O=C(C[C@H]1CC[C@@H]2[C@H](COC[C@@H](O)CN2Cc2ccc(F)cc2)O1)NCCc1ccccc1,1.058 ± 0.0038

row,SMILES,viability index
1,C[C@H]1CN([C@@H](C)CO)C(=O)CCCn2nncc2CO[C@H]1CN(C)C(=O)Nc1ccccc1C(F)(F)F,1 ± 0.048
2,CC(C)CC#Cc1ccc([C@@H]2[C@H](CO)N3C(=O)CN(S(=O)(=O)c4cccc(F)c4)C[C@@H]23)cc1,1 ± 0.054
3,CN1C(=O)c2cc(NC(=O)c3cnccn3)ccc2OC[C@@H]2O[C@H](CC(=O)N[C@H]3CCN(Cc4ccccc4)C3)CC[C@@H]21,0.913 ± 0.14
4,N#C[C@@H]1[C@H](c2ccccc2)[C@@H](CO)N1C(=O)c1cc(Cl)cc(Cl)c1,1.1 ± 0.044
5,C/C=C/c1ccc2n(c1=O)C[C@H]1[C@H](CO)[C@@H](C(=O)NCCC)[C@@H]2N1Cc1ccccc1OC.C/C=C\c1ccc2n(c1=O)C[C@H]1[C@H](CO)[C@@H](C(=O)NCCC)[C@@H]2N1Cc1ccccc1OC,1.079 ± 0.0033
6,COc1ccc(S(=O)(=O)N(C)C[C@@H]2Oc3ccc(NC(=O)Nc4ccc(C(F)(F)F)cc4)cc3C(=O)N([C@@H](C)CO)C[C@@H]2C)cc1,0.909 ± 0.049
7,CCNC(=O)[C@H]1[C@H](CO)[C@H]2Cn3c(cccc3=O)[C@H]2N1C(=O)CC1CC1,1.08 ± 0.066
8,C[C@H](CO)N1C[C@H](C)[C@@H](CN(C)C(=O)Nc2ccc(C(F)(F)F)cc2)Oc2c(NC(=O)c3ccc(-c4nccs4)cc3)cccc2C1=O,0.953 ± 0.018
9,COc1ccc(C#Cc2ccc3c(c2)[C@H]2[C@H](CCN2C(=O)c2cnccn2)[C@H](CO)N3)cc1,1.09 ± 0.038
10,CO[C@H]1CC[C@H]2CCOc3c(C#N)cccc3C(=O)N(C)C[C@H](OC)[C@@H](C)C(=O)N(C)C[C@@H]1O2,1.05 ± 0.082
11,COc1ccc(CN(C)C[C@H]2OCc3cnnn3CCCC(=O)N([C@@H](C)CO)C[C@@H]2C)cc1,1 ± 0.038
12,O=C(C[C@H]1C=C[C@@H](NC(=O)Nc2ccccc2F)[C@H](CO)O1)NCc1ccc(-c2ccccc2)cc1,1.07 ± 0.026
13,O=C(C[C@@H]1C=C[C@@H](NC(=O)CCN2CCCCC2)[C@@H](CO)O1)Nc1nccs1,0.966 ± 0.058
14,O=C(NC[C@H]1[C@@H](c2ccccc2)[C@H](CO)N1C(=O)C1CCC1)NC1CCCC1,1.09 ± 0.049
15,O=C(Nc1ccc(F)cc1)N1CC(=O)N2[C@@H](CO)[C@@H](c3ccc(C#Cc4cccnc4)cc3)[C@@H]2C1,1.05 ± 0.024
16,CC(C)NC(=O)N1CC(=O)N2[C@H](CO)[C@@H](c3ccc(/C=C/c4ccccc4)cc3)[C@@H]2C1,1.03 ± 0.035
17,CO[C@H](CN(C)S(=O)(=O)c1ccc(C)cc1)[C@H](C)CN(C(=O)Nc1ccccc1F)[C@@H](C)CO,0.986 ± 0.025
18,O=C(NCC[C@H]1CC[C@H](NC(=O)c2ccncc2)[C@@H](CO)O1)Nc1ccc(Cl)cc1,1.06 ± 0.069
19,CO[C@@H]1CC[C@H]2CCN(C)C(=O)[C@H](C)N(C)C(=O)c3cccc(C#N)c3OC[C@H]1O2,0.999 ± 0.04
20,COc1ccc(NC(=O)N2CC(=O)N3[C@@H](CO)[C@H](c4ccc(Br)cc4)[C@@H]3C2)cc1,1.06 ± 0.088
21,C[C@@H]1CN([C@H](C)CO)C(=O)c2ccccc2-c2ccccc2CO[C@H]1CN(C)S(=O)(=O)c1cccc(C#N)c1,1.02 ± 0.083
22,COc1cccc(C(=O)Nc2ccc3c(c2)OC[C@H](C)N(CCc2ccccc2)C[C@H](C)[C@H](OC)CN(C)C3=O)c1,1.05 ± 0.053
